Experimental data as given in publication PMC10896723.
Changes are numbered by the printed parent chain. No constants are given. Whether binding was seen depends on the method and setting. Binding seen in cells or lysates may run through a third protein. Some results given as binding are weak or reduced against the parent protein; the word gives no strength. Tags and fused reporters may be left off the sequences shown.

By UniProt entry, the sequences of proteins in these tests, tags left out.
UniProt Q96KP1: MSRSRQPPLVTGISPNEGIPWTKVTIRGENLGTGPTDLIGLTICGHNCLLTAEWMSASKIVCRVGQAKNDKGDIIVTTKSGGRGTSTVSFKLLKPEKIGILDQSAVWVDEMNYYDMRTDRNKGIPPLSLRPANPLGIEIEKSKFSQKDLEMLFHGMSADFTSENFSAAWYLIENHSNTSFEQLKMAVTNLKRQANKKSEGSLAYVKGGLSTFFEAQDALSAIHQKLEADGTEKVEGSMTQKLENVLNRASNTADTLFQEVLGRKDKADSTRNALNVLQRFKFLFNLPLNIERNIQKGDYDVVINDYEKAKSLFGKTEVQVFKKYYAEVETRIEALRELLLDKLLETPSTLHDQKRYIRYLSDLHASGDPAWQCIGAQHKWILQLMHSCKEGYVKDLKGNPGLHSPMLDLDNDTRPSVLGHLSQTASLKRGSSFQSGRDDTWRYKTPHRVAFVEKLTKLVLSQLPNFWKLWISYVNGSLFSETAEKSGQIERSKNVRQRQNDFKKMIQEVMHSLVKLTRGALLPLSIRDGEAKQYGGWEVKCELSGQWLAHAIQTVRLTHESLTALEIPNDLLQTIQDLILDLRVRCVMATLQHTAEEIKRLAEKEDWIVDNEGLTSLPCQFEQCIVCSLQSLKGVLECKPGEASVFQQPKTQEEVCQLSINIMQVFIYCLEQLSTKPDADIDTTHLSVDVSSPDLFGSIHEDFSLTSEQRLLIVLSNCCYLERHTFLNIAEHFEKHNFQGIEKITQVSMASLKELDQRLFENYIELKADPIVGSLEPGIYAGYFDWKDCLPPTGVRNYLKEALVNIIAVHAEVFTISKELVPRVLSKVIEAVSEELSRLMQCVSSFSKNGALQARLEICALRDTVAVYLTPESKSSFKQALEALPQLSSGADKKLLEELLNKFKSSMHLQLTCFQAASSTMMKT
UniProt Q8K1M6: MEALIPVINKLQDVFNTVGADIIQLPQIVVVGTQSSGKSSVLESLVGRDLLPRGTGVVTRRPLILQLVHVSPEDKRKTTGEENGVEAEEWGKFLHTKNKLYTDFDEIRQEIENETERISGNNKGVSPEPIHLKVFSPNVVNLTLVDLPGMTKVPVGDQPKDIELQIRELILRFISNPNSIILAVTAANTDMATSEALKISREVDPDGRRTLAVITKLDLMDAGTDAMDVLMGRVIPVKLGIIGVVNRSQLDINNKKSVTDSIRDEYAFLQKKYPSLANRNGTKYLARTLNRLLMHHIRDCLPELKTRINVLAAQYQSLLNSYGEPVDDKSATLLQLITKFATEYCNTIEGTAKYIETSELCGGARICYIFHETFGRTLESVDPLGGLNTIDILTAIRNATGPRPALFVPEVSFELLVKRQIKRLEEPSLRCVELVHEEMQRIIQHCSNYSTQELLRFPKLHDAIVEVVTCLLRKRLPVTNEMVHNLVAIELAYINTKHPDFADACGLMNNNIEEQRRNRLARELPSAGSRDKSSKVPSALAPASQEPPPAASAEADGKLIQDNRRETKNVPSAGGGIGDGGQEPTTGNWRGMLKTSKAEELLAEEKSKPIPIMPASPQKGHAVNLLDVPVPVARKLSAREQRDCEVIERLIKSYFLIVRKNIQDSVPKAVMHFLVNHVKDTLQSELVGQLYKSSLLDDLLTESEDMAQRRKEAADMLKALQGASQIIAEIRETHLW
UniProt P30153: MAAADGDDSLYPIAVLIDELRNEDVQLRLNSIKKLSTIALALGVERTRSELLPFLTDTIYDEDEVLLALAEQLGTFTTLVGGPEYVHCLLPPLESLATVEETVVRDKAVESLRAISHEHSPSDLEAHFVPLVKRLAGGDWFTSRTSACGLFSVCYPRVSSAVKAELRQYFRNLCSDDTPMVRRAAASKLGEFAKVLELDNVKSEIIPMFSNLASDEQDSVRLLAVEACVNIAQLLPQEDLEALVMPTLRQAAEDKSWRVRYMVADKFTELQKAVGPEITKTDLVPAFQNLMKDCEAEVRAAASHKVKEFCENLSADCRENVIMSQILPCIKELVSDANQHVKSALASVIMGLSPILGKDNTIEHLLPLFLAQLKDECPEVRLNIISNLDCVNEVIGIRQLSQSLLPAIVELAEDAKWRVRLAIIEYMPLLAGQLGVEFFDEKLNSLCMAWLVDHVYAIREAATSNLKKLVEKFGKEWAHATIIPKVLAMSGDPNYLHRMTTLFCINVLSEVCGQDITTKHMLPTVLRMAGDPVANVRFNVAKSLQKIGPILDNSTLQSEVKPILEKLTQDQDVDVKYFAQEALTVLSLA

How the values were obtained:
Flag-RalA^S28N = molecular target: T1, Flag-RalA^S28N (UniProt P11233); experiment: co-IP; co-transfected HEK293T cells; lysis buffer or Drp1 buffer; 0.5-1 mg protein with Anti-Flag M2 Affinity gel at 4 °C overnight
T1 sequence: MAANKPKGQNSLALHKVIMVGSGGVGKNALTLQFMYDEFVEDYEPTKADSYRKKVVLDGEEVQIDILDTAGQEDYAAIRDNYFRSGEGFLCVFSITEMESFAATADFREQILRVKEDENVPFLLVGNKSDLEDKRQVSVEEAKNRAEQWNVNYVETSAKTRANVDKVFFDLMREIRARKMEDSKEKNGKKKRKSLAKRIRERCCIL

Flag-RalA^G23V = molecular target: T2, Flag-RalA^G23V (UniProt P11233); experiment: as above
T2 sequence: T1 sequence with G23V, N28S

Flag-RalA^WT [1] = molecular target: T3, Flag-RalA^WT (UniProt P11233); experiment: as above
T3 sequence: T1 sequence with N28S

Flag-RalA^WT [2] = molecular target: T3, Flag-RalA^WT; experiment: pull-down; Flag-RalA^WT beads loaded in vitro with 200 μM GDP (1 h, 25 °C), then incubated with GFP-PP2Aa HEK293T lysate at 4 °C overnight; only the target purified
Flag-RalA^WT [3] = molecular target: T3, Flag-RalA^WT; experiment: pull-down; Flag-RalA^WT beads loaded in vitro with 2 mM GTPγS (1 h, 25 °C), then incubated with GFP-PP2Aa HEK293T lysate at 4 °C overnight; only the target purified
Flag-RalA^WT [4] = molecular target: T3, Flag-RalA^WT; experiment: pull-down; Flag-RalA^WT from HEK293T lysate held on Anti-Flag M2 Affinity gel, washed, incubated with GFP-PP2Aa HEK293T lysate at 4 °C overnight; lysis buffer 25 mM Tris-HCl, 130 mM NaCl, 10 mM MgCl2, 10% glycerol, 0.5% NP-40; only the target purified

## Sec5 (from UniProt Q96KP1 1-924)
Flag-RalA^S28N
  binding: no binding
Flag-RalA^G23V
  binding: binds

## Myc-Drp1 (from UniProt Q8K1M6 1-736)
Flag-RalA^S28N
  binding: binds
Flag-RalA^WT [1]
  binding: binds
Flag-RalA^G23V
  binding: binds

## GFP-PP2Aa (from UniProt P30153 1-589)
Flag-RalA^G23V
  binding: binds
Flag-RalA^WT [2]
  binding: no binding (condition: RalA loaded with GDP (200 μM))
Flag-RalA^WT [3]
  binding: binds
Flag-RalA^WT [4]
  binding: binds
